Laboratory results taken from PubChem BioAssay AID1347043 (National Center for Advancing Translational Sciences (NCATS), 2019).
Among all 76,000 compounds or so, about 1,900 (2.5%) were called active. The inconclusive results got no clear call from the source; some entries with a clear call stand among them for comparison. Calls come from the whole dose curve; as a rule, active = well fitted inhibition curve with a large enough effect; inconclusive = small, poorly fitted or top-dose-only effect; inactive = flat fitted curve, though single readings scatter. Potencies beside an inconclusive call are fits to weak or partial responses and may not hold up.

Target: Luciferin 4-monooxygenase (Photinus pyralis) (UniProt P08659)
Assay: Firefly luciferase inhibition profiling of diverse chemical library using quantitative high-throughput screening; note: nearly all actives have a fitted effect of over 65% in size
Conditions: purified P. pyralis luciferase, luminescence, biochemical; activity change, negative = inhibition: at 115 µM (top of the series) unless noted
In short: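 Inhibitors were tested against purified firefly luciferase in a biochemical, low-substrate format (both substrates at 10uM) and luminescence measured with a CCD imager.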
% is set by controls: 0 for no effect and ±100 for the full control effect; potency is the fitted concentration of half-maximal effect; tags give direction and shape of the fitted curve.

UniProt P08659, sequence (P08659 whole entry, looked up): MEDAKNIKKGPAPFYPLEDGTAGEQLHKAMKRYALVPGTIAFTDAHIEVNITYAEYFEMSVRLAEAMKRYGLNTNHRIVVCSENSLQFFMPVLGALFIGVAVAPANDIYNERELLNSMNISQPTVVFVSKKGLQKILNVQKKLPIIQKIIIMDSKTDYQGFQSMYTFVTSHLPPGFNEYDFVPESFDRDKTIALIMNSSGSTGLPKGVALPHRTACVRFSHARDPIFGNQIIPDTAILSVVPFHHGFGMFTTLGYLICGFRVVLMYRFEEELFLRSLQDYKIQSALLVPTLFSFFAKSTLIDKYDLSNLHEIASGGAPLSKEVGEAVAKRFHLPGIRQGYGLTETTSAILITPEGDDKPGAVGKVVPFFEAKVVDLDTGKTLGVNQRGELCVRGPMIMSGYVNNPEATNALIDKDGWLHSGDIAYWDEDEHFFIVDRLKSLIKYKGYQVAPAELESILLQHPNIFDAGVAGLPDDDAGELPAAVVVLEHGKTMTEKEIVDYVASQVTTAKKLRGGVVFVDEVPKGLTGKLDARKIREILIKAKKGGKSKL

SMILES	Potency	activity change, negative = inhibition
O=C(CCc1nc2ccc(Cl)cc2[nH]1)N1CCc2c(nc3cc(-c4ccccc4)[nH]n3c2=O)C1	inconclusive: 50.1 µM [inhibitor, partial curve]	–
CC(C)NC(=O)N1CCC(Oc2ccccc2-c2nc(-c3ccccc3)no2)C1 (centres undefined)	inconclusive: 39.8 µM [inhibitor, partial curve, poor fit]	–
O=C(CCC1CCN(c2cc(NC3CC3)ncn2)CC1)NCc1cc(F)cc(F)c1	inconclusive: 44.7 µM [inhibitor, partial curve]	–
CC1(C)NC(=O)N(CCC(=O)N2CCc3c(nc4cc(-c5ccccc5)[nH]n4c3=O)C2)C1=O	inconclusive: 50.1 µM [inhibitor, partial curve]	–
COc1ccc(NC(=O)Cn2cccc2-c2nc(-c3ccccc3)no2)cc1OC	–	inactive: -3.15%
C=CCNC(=O)[C@@H]1Cc2cn(Cc3ccncc3)c3cccc(c23)[C@H](CC(C)C)N1	–	inactive: -18.1% [at 172 µM]
CC1(C(=O)N2CCCC(CCc3ccc(F)c(F)c3)C2)CC1 (centres undefined)	inconclusive: 39.8 µM [inhibitor, partial curve]	–
COc1ccc(-c2cnc(NCc3ccccc3)c3c2CCO3)cc1	inconclusive: 28.2 µM [inhibitor, full curve]	–
O=C(NCc1ccc(C(F)(F)F)cc1)c1nc2sccn2c1Br	inconclusive: 44.7 µM [inhibitor, partial curve]	–
CC(c1nn[nH]n1)n1cc(-c2cc3c(cc2Cl)OCO3)nn1 (centres undefined)	inconclusive: 79.4 µM [inhibitor, partial curve, poor fit]	–
Cc1c(F)cccc1NC(=O)Nc1cccc(-c2nnc3n2CCCC3)c1	inconclusive: 3.16 µM [inhibitor, partial curve, poor fit]	–
CCOCCn1c(=O)[nH]c2cc(C(=O)NCCc3ccc(C)s3)ccc21	active: 39.8 µM	–
CC(C)n1cc2cc(C(=O)N3CCSCC3)sc2c1	inconclusive: 0.316 µM [inhibitor, full curve]	–
CCc1cccc(NC(=O)c2ccc3c(c2)N(C)C2CCCCN2C3=O)c1 (centres undefined)	inconclusive: 31.6 µM [inhibitor, partial curve]	–
Cc1ccc(OC(=O)N2CCC(COc3ccc4c(cnn4CCC(=O)O)c3)CC2)cc1	–	inactive: 2% [at 172 µM]
COc1ccc(-c2cc(N3CCCC(NC(=O)c4ccccc4Cl)C3)n[nH]2)cc1 (centres undefined)	active: 44.7 µM	–
O=C(c1cc2ccccc2[nH]1)N1CCCC(c2nc(CCOCC3CC3)no2)C1 (centres undefined)	inconclusive: 56.2 µM [inhibitor, partial curve]	–
CSc1cccc(NC(=O)Nc2cccc(-c3ccc(N4CCOCC4)nn3)c2)c1	active: 0.794 µM	–
O=C(c1cnn2ncccc12)N1CCOCC1	inconclusive: 112 µM [inhibitor, partial curve]	–
Cn1c(CN2C[C@H](O)C[C@H]2c2nc(-c3ccc4c(c3)OCO4)no2)nc2ccccc21	inconclusive: 70.8 µM [inhibitor, partial curve, poor fit]	–
CC1(COc2cccnc2)COc2ccc(C(=O)NCCOc3ccccc3)cc2N1 (centres undefined)	inconclusive: 112 µM [inhibitor, partial curve, poor fit]	–
CCOC(=O)C1(Cc2ccccc2)CCNCC1	inconclusive: 44.7 µM [inhibitor, partial curve]	–
N#Cc1ccc(S(=O)(=O)N2CCCN(S(=O)(=O)c3ccccc3)CCC(=O)NCC2)cc1	–	inactive: -2.64%

SMILES	Potency	activity change, negative = inhibition
COC(=O)c1ccc2nc(CO[C@H]3CN(Cc4ccc(OC)nc4)C[C@H]3F)[nH]c2c1	–	inactive: -8.38% [at 172 µM]
O=C(NC1CCCN(c2cc(-c3ccccc3)[nH]n2)C1)c1ccc2c(c1)OCO2 (centres undefined)	inconclusive: 31.6 µM [inhibitor, partial curve]	–
Cc1noc(C)c1CN1CCc2ncc(C(=O)Nc3ccccc3)n2CC1	–	inactive: -2% [at 172 µM]
C[C@H](C(=O)N1CCCC1)[C@@H]1CC[C@@]2(C)Cc3sc(-c4ccsc4)nc3[C@@H](C)[C@@H]2[C@H]1O	active: 11.2 µM	–
CCOc1ccc(NC(=O)c2ccc3c(c2)N(C)C2CCCCCN2C3=O)cc1 (centres undefined)	inconclusive: 39.8 µM [inhibitor, partial curve]	–
CCCCCC(=O)Nc1nc2c(s1)C[C@@H]1[C@](C)(CO)[C@H](O)CC[C@@]1(C)[C@@H]2CC(=O)N[C@H](C)c1ccccc1	–	inactive: -0.247%
Cc1ccc(C(=O)COc2cccn3c(=O)c(-c4cc(C)n(-c5ccccc5)n4)c(C)nc23)cc1	inconclusive: 44.7 µM [inhibitor, partial curve]	–
CN1CCC2(C1)CN(CC1CCOCC1)c1ccc(C(=O)Nc3ccccc3)cc12 (centres undefined)	active: 50.1 µM	–
COc1ccc(C(=O)N2CC(C(=O)N(C)C)C3(CCOCC3)C2)cc1 (centres undefined)	–	inactive: -2.51%
CCOCCCNC(=O)N1c2ccccc2CC1c1nc(C(C)C)no1 (centres undefined)	inconclusive: 50.1 µM [inhibitor, partial curve]	–
O=C(Nc1ccc2c(N3CCCC3)ncnc2c1)c1ccccc1Cl	inconclusive: 50.1 µM [inhibitor, partial curve, poor fit]	–
CN(c1ccccc1)c1ccc2nnc(-c3cc(C(=O)NCc4ccncc4)ccn3)n2n1	–	inactive: -8.21% [at 172 µM]
COc1cccc(-c2cccc(C(=O)N3CCC4(CCCN(C)C4=O)C3)c2)c1 (centres undefined)	–	inactive: -17.4%
O=C1CCN(C(=O)C2CCN(C(=O)c3ccc4ccccc4n3)CC2)CCCCCCN1	–	inactive: -6.16%
COC(=O)[C@@H]1Cc2c([nH]c3ccccc23)[C@H]2C[C@@H](NCc3cccnc3)C[C@@H](c3ccc(C(F)(F)F)cc3)N21	–	inactive: -0.0479%
c1cc(N2CCOCC2)ncc1-c1noc([C@@H]2CCCN2)n1	active: 56.2 µM	–
O=C1NCCCCCCN(C(=O)c2cccnc2)[C@H]2CCC[C@@H]12	–	inactive: -2.89%
O=C(NC[C@H]1Cn2cc(-c3ccccc3)nc2CO1)c1ccccc1	inconclusive: 56.2 µM [inhibitor, partial curve]	–
CCN1C(=O)COC[C@@H]1[C@H](O)c1ccc(NC(=O)c2ccc3c(c2)OCO3)cc1	inconclusive: 112 µM [inhibitor, partial curve]	–
CCCOc1ccc(CN2CCC3(CC2)CC(O)CCO3)cc1OC (centres undefined)	–	inactive: 5.71%
CNc1ncc(CN(C)C(=O)CCc2cc3n(n2)CCCNC3)cn1	–	inactive: 2.38%
COc1ccc(CN2CCOc3ccc(C(=O)NCc4ccccc4F)cc3C2)c(OC)c1	–	inactive: 4.25%
Cc1ccc2c(c1)N1C(=O)OC[C@@H]1CCN(C(=O)Nc1ccccc1)C2	inconclusive: 50.1 µM [inhibitor, partial curve]	–

SMILES	Potency	activity change, negative = inhibition
COc1ccc(Cl)cc1C(=O)N1CCc2c(nc3cc(-c4ccccc4)[nH]n3c2=O)C1	inconclusive: 28.2 µM [inhibitor, partial curve]	–
CC(O)CNc1ccc(-c2nc(CCCc3ccccc3)no2)cn1 (centres undefined)	active: 44.7 µM	–
Cc1nn(-c2ccc(C(F)(F)F)cc2)c(C)c1[C@@H]1C=C[C@@H](NC(=O)Nc2ccccc2)C1	active: 12.6 µM	–
O=C(CN1C(=O)NC2(CCCCC2)C1=O)N1CCCCCC1	–	inactive: 1.54%
CC(C)c1ccc(-n2cc(CN3CCCC(O)(CN(C)C)C3)cn2)cc1 (centres undefined)	inconclusive: 50.1 µM [inhibitor, partial curve]	–
COc1cncc([C@@H](NC(=O)Cc2ccsc2)C2CC(O)C2)c1 (some centres undefined)	–	inactive: 10.6%
Cc1ccc(C(=O)NC2CCCN(c3cc(-c4ccc(F)cc4)[nH]n3)C2)cn1 (centres undefined)	inconclusive: 50.1 µM [inhibitor, partial curve]	–
CN(C)c1ccc2ncc(Nc3cc(F)cc(N4CCOCC4)c3)n2n1	inconclusive: 70.8 µM [inhibitor, partial curve]	–
O=C(c1ccc2[nH]ccc2c1)N1CCC(n2cc(-c3nc(-c4ccccc4)no3)nn2)C1 (centres undefined)	inconclusive: 79.4 µM [inhibitor, partial curve]	–
C=CCOc1cccc(-c2nc(C(=O)N(C)CC)cs2)c1	inconclusive: 50.1 µM [inhibitor, partial curve]	–
CCN(Cc1ccncc1)C(=O)c1cc(-c2cnn(CC)c2)nc2cc(C)ccc12	inconclusive: 79.4 µM [inhibitor, partial curve]	–
CN(CCO)c1ccc(-c2nc(CCCc3ccccc3)no2)cn1	active: 6.31 µM	–
CC(=O)Nc1ccc(CN2CCN3C(=O)N(c4ccccn4)C[C@H]3C2)cc1	inconclusive: 112 µM [inhibitor, single point]	–
O=C(NCc1ccc(F)cc1)N1CC(Oc2ccc(-c3noc(-c4ccccc4)n3)cc2)C1	inconclusive: 3.55 µM [inhibitor, full curve]	–
Cc1oc(C(O)c2ccccc2F)nc1C(=O)Nc1ccc2[nH]ccc2c1 (centres undefined)	active: 63.1 µM	–
COc1cccc(CC(=O)N2CC(CNc3ccccc3)C3(C2)CN(c2ccccc2)C3)c1 (centres undefined)	–	inactive: -4.54%
COc1ccc(NC(=O)N2Cc3[nH]cnc3C[C@H]2c2nc(-c3ccc(Cl)cc3)no2)cc1	inconclusive: 44.7 µM [inhibitor, partial curve]	–
O=C(c1ccco1)N1CCCN(c2cc(-c3ccc(Br)cc3)[nH]n2)CC1	inconclusive: 50.1 µM [inhibitor, partial curve]	–
COc1ccc(NC(=O)c2ccc3c(c2)OCCN(Cc2ncccn2)C3)cc1F	inconclusive: 70.8 µM [inhibitor, partial curve]	–
Cc1cc(F)ccc1-c1cccc(COc2cnc3c(ccn3CC(=O)O)c2)c1	–	inactive: 12.9% [at 172 µM]
Cc1ccc(C(=O)N(C)C2CCCc3ccccc32)cc1 (centres undefined)	active: 35.5 µM	–
CCCCOc1c(CNC2(CO)CCCC2)cccc1OC	–	inactive: -2.77%
CC1=NS(=O)(=O)N(C)C=C1C(=O)OCc1nc(-c2ccc(C(F)(F)F)cc2)no1	–	inactive: -5.71%
